# Assay results from PubChem BioAssay AID1745853 (National Center for Advancing Translational Sciences (NCATS), 2022).
# Some of the results follow. Further columns of the screen follow, without active or inactive calls.
# Key:
# Test in all cases: Primary Screen for Target Class Profiling of Small Molecule Inhibitors of Methyltransferases
# [1] = molecular target: Glycine N-methyltransferase (Homo sapiens) (UniProt Q14749); details: purified enzyme, MTase-Glo SAH luminescence; measured here: GNMT inhibition; at 40 µM; stronger effect = lower value
# In short: (§1)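 Each enzyme was assayed with SAM and its substrate. SAH formation detected by MTase-Glo luminescence; single-point 40 uM screen[…].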
# [2] = molecular target: Guanidinoacetate N-methyltransferase (Homo sapiens) (UniProt Q14353); details: purified enzyme, MTase-Glo SAH luminescence; measured here: GAMT inhibition; at 40 µM; stronger effect = lower value
# In short: as §1
# [3] = molecular target: Histamine N-methyltransferase (Homo sapiens) (UniProt P50135); details: purified enzyme, MTase-Glo SAH luminescence; measured here: HNMT inhibition; at 40 µM; stronger effect = lower value
# In short: as §1
# [4] = molecular target: Nicotinamide N-methyltransferase (Homo sapiens) (UniProt P40261); details: purified enzyme, MTase-Glo SAH luminescence; measured here: NNMT inhibition; at 40 µM; stronger effect = lower value
# In short: as §1
# [5] = molecular target: Phenylethanolamine N-methyltransferase (Homo sapiens) (UniProt P11086); details: purified enzyme, MTase-Glo SAH luminescence; measured here: PNMT inhibition; at 40 µM; stronger effect = lower value
# In short: as §1
# % is scaled to controls: 0 for no effect and ±100 for the full control effect.
structure (smiles),measurement,setting,value
CCCn1c(=O)c2ccc(Cl)cc2n2c(=O)n(CC(=O)Nc3ccc(C)cc3C)nc12,"activity change, negative = inhibition",[1],-0.293%
same,"activity change, negative = inhibition",[2],3.6%
same,"activity change, negative = inhibition",[3],1.87%
same,"activity change, negative = inhibition",[4],0.739%
same,"activity change, negative = inhibition",[5],-0.765%
N#Cc1ccc(CN2CCCC3(CC(c4cccnc4)=NO3)C2)cc1 (stereo not given),"activity change, negative = inhibition",[1],-4.27%
same,"activity change, negative = inhibition",[2],-5.17%
same,"activity change, negative = inhibition",[3],-3.63%
same,"activity change, negative = inhibition",[4],-3.9%
same,"activity change, negative = inhibition",[5],-3.1%
CC[C@]12CCCN3CCc4c(n(c5ccccc45)C(=O)C1)[C@@H]32,"activity change, negative = inhibition",[1],2.83%
same,"activity change, negative = inhibition",[2],1.25%
same,"activity change, negative = inhibition",[3],8.41%
same,"activity change, negative = inhibition",[4],-23.9%
same,"activity change, negative = inhibition",[5],-4.68%
Cc1nn(C)cc1CN1CCC(O)(c2ccccc2)[C@H](N2CCCC2)C1 (stereo not given in full),"activity change, negative = inhibition",[1],-13.9%
same,"activity change, negative = inhibition",[2],-6.49%
same,"activity change, negative = inhibition",[3],-12.6%
same,"activity change, negative = inhibition",[4],-13.1%
same,"activity change, negative = inhibition",[5],-4.92%
COc1ccc(N2C(=O)c3cc4ccccc4n3CC2(C)C(=O)NC2CCCC2)cc1OC (stereo not given),"activity change, negative = inhibition",[1],-3.28%
same,"activity change, negative = inhibition",[2],3.51%
same,"activity change, negative = inhibition",[3],-4.52%
same,"activity change, negative = inhibition",[4],1.5%
same,"activity change, negative = inhibition",[5],-2.86%
CC(C)CCNC(=O)N1CC[C@@H]2COC(=O)N(Cc3ccccc3)[C@@H]2C1,"activity change, negative = inhibition",[1],-5.02%
same,"activity change, negative = inhibition",[2],-13.4%
same,"activity change, negative = inhibition",[3],-5.22%
same,"activity change, negative = inhibition",[4],-24.3%
same,"activity change, negative = inhibition",[5],-11.7%
CCc1cc2c(cc3n2CC(C)(C(=O)NC2CCC(C)CC2)N(c2cccc(OC)c2)C3=O)s1 (stereo not given),"activity change, negative = inhibition",[1],0.52%
same,"activity change, negative = inhibition",[2],0%
same,"activity change, negative = inhibition",[3],4.21%
same,"activity change, negative = inhibition",[4],-9.35%
same,"activity change, negative = inhibition",[5],0.727%
CC(C(=O)NCc1cccc(F)c1)n1ccc2cc(S(=O)(=O)N3CCCC3)ccc21 (stereo not given),"activity change, negative = inhibition",[1],0.578%
same,"activity change, negative = inhibition",[2],0%
same,"activity change, negative = inhibition",[3],1.86%
same,"activity change, negative = inhibition",[4],-4.31%
same,"activity change, negative = inhibition",[5],-2.43%
CCN1C(=O)Cc2cc(C(=O)NCCC(C)C)ccc21,"activity change, negative = inhibition",[1],0.845%
same,"activity change, negative = inhibition",[2],1.37%
same,"activity change, negative = inhibition",[3],2.95%
same,"activity change, negative = inhibition",[4],-1.24%
same,"activity change, negative = inhibition",[5],10.4%
CC1(C(=O)NC2CCCCC2)Cc2ccccc2C(=O)N1C1CCCCCC1 (stereo not given),"activity change, negative = inhibition",[1],-3.51%
same,"activity change, negative = inhibition",[2],4.74%
same,"activity change, negative = inhibition",[3],4.62%
same,"activity change, negative = inhibition",[4],9.51%
same,"activity change, negative = inhibition",[5],-1.84%
COc1cccc(C(=O)Cn2nc3n(C(C)C)c(=O)c4ccc(C(=O)NC5CCCCC5)cc4n3c2=O)c1,"activity change, negative = inhibition",[1],-0.2%
same,"activity change, negative = inhibition",[2],1.8%
same,"activity change, negative = inhibition",[3],5%
same,"activity change, negative = inhibition",[4],-4.64%
same,"activity change, negative = inhibition",[5],-0.943%
COc1c(O)cc2c(c1O)C(=O)O[C@H](C)[C@H]2O,"activity change, negative = inhibition",[1],0%
same,"activity change, negative = inhibition",[2],0.735%
same,"activity change, negative = inhibition",[3],-2.94%
same,"activity change, negative = inhibition",[4],-9.99%
same,"activity change, negative = inhibition",[5],4.21%
CC1CCC(N2C(=O)c3cc4occc4n3CC2(C)C(=O)NC2CCCCC2)CC1 (stereo not given),"activity change, negative = inhibition",[1],2.41%
same,"activity change, negative = inhibition",[2],0.033%
same,"activity change, negative = inhibition",[3],2.96%
same,"activity change, negative = inhibition",[4],7.1%
same,"activity change, negative = inhibition",[5],0.028%
COc1ccccc1CNC(=O)CCc1nnc2n(Cc3ccc(C)cc3)c(=O)c3ccccc3n12,"activity change, negative = inhibition",[1],-5.8%
same,"activity change, negative = inhibition",[2],0.593%
same,"activity change, negative = inhibition",[3],9.69%
same,"activity change, negative = inhibition",[4],10.7%
same,"activity change, negative = inhibition",[5],2.79%
CCC(C(=O)NCCC(C)C)n1ccc2cc(S(=O)(=O)N3CCCCC3)ccc21 (stereo not given),"activity change, negative = inhibition",[1],2.73%
same,"activity change, negative = inhibition",[2],0.485%
same,"activity change, negative = inhibition",[3],4.13%
same,"activity change, negative = inhibition",[4],2.1%
same,"activity change, negative = inhibition",[5],0.967%
CC(=O)Nc1ccc(-c2nnc3n(Cc4ccccc4Cl)c(=O)c4ccccc4n23)cc1,"activity change, negative = inhibition",[1],-24.1%
same,"activity change, negative = inhibition",[2],1.01%
same,"activity change, negative = inhibition",[3],1.49%
same,"activity change, negative = inhibition",[4],0.831%
same,"activity change, negative = inhibition",[5],-1.33%
Cc1oc2c(c1C(=O)N1CCOCC1)CN(C(=O)c1ccncc1)CC2,"activity change, negative = inhibition",[1],-4.05%
same,"activity change, negative = inhibition",[2],-6.28%
same,"activity change, negative = inhibition",[3],-3.44%
same,"activity change, negative = inhibition",[4],-4.55%
same,"activity change, negative = inhibition",[5],-3.95%
Cc1nc(N2CCC(NC(=O)COc3ccccc3)CC2)cc(C(F)(F)F)n1,"activity change, negative = inhibition",[1],-1.98%
same,"activity change, negative = inhibition",[2],0.337%
same,"activity change, negative = inhibition",[3],-1.03%
same,"activity change, negative = inhibition",[4],0.858%
same,"activity change, negative = inhibition",[5],0.943%
CC(N)(C(=O)O)c1ccc(C(=O)O)cc1 (stereo not given),"activity change, negative = inhibition",[1],4.46%
same,"activity change, negative = inhibition",[2],13.8%
same,"activity change, negative = inhibition",[3],8.68%
same,"activity change, negative = inhibition",[4],-2.04%
same,"activity change, negative = inhibition",[5],6.74%
CCOC(=O)CNC(=O)C1(C)Cn2c(ccc2-c2ccco2)C(=O)N1c1ccc(OC)c(OC)c1 (stereo not given),"activity change, negative = inhibition",[1],-6.97%
same,"activity change, negative = inhibition",[2],0%
same,"activity change, negative = inhibition",[3],10.6%
same,"activity change, negative = inhibition",[4],15.1%
same,"activity change, negative = inhibition",[5],2.29%
